In publication PMC4336329 (PLoS ONE, 2015):
The whole screen tested about 310,000 compounds, of which about 14,000 (4.5%) showed an effect of 50% or more. The effect is printed as a negative number. The list shows a part of the results.

What follows are molecules tested against human ether-à-go-go-related gene (hERG) potassium channel (human, UniProt Q12809) (assay: primary screen, population patch clamp on CHO cells stably expressing hERG).
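Further: peak tail current of the secondary pulse compared with the same well before compound.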

human ether-à-go-go-related gene (hERG) potassium channel, sequence (Q12809 whole entry, looked up): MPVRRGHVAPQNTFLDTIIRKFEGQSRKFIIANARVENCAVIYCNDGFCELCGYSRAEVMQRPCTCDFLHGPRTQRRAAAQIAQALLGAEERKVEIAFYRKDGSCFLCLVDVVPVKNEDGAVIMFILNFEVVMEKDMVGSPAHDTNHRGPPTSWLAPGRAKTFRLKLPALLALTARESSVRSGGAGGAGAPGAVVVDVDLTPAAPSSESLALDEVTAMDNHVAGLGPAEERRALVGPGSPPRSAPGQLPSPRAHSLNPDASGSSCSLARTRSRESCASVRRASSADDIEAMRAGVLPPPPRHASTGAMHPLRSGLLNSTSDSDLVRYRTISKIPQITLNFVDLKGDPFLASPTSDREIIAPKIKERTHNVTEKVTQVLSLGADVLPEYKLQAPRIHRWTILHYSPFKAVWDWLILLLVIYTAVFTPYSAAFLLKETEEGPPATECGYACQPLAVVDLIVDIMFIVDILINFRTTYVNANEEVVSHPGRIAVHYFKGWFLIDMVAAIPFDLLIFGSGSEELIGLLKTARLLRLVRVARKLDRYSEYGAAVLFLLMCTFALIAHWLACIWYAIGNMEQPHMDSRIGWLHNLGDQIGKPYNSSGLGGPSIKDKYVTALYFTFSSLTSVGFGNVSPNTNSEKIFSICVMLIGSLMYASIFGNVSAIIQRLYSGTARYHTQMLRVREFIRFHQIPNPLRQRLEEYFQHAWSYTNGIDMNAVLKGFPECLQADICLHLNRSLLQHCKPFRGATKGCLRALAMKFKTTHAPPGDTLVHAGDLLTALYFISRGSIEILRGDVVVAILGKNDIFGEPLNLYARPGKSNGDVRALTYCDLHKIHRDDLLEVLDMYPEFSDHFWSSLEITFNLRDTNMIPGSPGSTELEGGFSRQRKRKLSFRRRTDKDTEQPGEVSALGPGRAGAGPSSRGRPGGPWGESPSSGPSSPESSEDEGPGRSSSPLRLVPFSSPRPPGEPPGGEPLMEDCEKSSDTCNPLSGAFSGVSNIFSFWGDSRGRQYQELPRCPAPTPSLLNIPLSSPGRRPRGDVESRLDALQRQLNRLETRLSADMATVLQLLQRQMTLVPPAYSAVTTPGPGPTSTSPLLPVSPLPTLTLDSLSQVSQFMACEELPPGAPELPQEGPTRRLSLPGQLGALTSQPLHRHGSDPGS

Row | Compound | hERG current change (%, negative = inhibition) at 10uM
1 | O=C1CSC(c2ccc([N+](=O)[O-])cc2)N1C1CCCCC1 (centres unmarked) | -47.4%
2 | CC1=CC2=NC(=O)CC(C)(C(=O)N(CC(=O)NC3CCCC3)Cc3ccccc3)N2C=C1 (centres unmarked) | 9.18%
3 | Cc1nnc(SCC(=O)NCc2ccccc2)n1-c1ccccc1 | 17.5%
4 | COc1cccc(C2Nc3cccc4cccc(c34)N2)c1 | -26.2%
5 | Cc1noc(C)c1S(=O)(=O)N1CCC(C(=O)N2CCN(C3CCCC3)CC2)CC1 | 6.31%
6 | O=C(CSc1nc(-c2ccccc2)cs1)NCc1ccco1 | -14.9%
7 | COc1ccc(NC(=O)c2c(C)noc2C(C)C)cc1S(=O)(=O)N1CCCCC1 | -2.7%
8 | COC(C(=O)Nc1ccnn1C1CCN(Cc2ccc(CO)o2)CC1)c1ccccc1 (centres unmarked) | 3.28%
9 | CCn1c(O)c2ccc(C(=O)N=NC(=O)c3ccccc3)cc2c1O | 13.1%
10 | COc1ccc2nc(S(=O)Cc3ncc(C)c(OC)c3C)[nH]c2c1 (centres unmarked) | 4.04%
11 | CC(C)C(NC(=O)C1CCCCC1)C(=O)Nc1ccc2c(c1)OCCO2 (centres unmarked) | -1.07%
12 | CC1CN(C(=O)c2ccc(S(=O)(=O)Nc3cccc(C(F)(F)F)c3)cc2)CC(C)O1 (centres unmarked) | -3.52%
13 | Cc1ccc(C)c(NC(=O)C[n+]2ccccc2)c1.[Cl-] | 4.06%
14 | COc1ccc(CCC2(C)NC(=O)N(C(C)C(=O)Nc3ccccc3F)C2=O)cc1 (centres unmarked) | -38.9%
15 | Cc1cnc(C(=O)OCC(=O)N2CCc3ccccc3C2)cn1 | 12%
16 | CCNc1nc(Cl)nc(NNC(=O)C(C)Oc2ccccc2)n1 (centres unmarked) | 5.15%
17 | CCC(C)n1cnc2c(c1=O)c1nc3ccccc3nc1n2Cc1ccccc1OC (centres unmarked) | 15.5%
18 | O=C(c1c(Cl)cccc1Cl)N1CCN(c2ccccn2)CC1 | -22.5%
19 | N#CC1=C(N)Oc2cc(N)ccc2C1c1cccc(Br)c1 (centres unmarked) | -13.7%
20 | Cc1cc(C)c2c(CC(=O)NC(C)C)coc2c1 | 14.9%
21 | COc1ccccc1CNC(=O)CCNS(=O)(=O)c1cc(Br)cnc1N | -5.47%
22 | CCN(CC)C(=O)CSc1nc2c(sc(=S)n2Cc2ccco2)c(=O)n1-c1ccccc1 | -29.4%

Row | Compound | hERG current change (%, negative = inhibition) at 10uM
23 | CC1CCCCC1NC(=O)CCCn1c(=S)[nH]c2ccsc2c1=O (centres unmarked) | 12.9%
24 | O=C1CC(C(=O)Nc2ccc(F)cc2)n2cnnc2N1 (centres unmarked) | -5.71%
25 | CC(=O)c1cnn(-c2c(Cl)cc(Cl)cc2Cl)c1C | -6.26%
26 | CC(=O)Nc1nc(NCc2ccccc2Cl)n(-c2ccccc2)n1 | 8.06%
27 | O=C(NCCc1ccncc1)Nc1ccccc1Cl | -6.18%
28 | Cc1ccc(C(=O)NC(=S)NNC(=O)COc2ccc([N+](=O)[O-])cc2)cc1 | 3.49%
29 | COC(=O)c1sc2nc(C)nc(SCC(=O)C(C)(C)C)c2c1C | 24.5%
30 | CCOc1ccc(-c2cc(C(=O)NN=C3CCN(C)CC3)[nH]n2)cc1 | -5.35%
31 | COc1cccc(NC(=O)CSc2ccccn2)c1 | -1.4%
32 | COc1ccc(Nc2sc(C(=O)c3ccc(Cl)cc3)c(N)c2C(=O)Nc2ccccc2OC)cc1 | 0.252%
33 | Cc1nn(C)cc1C(C)NC(=O)c1cc(COc2cccc3cnccc23)on1 (centres unmarked) | 13.9%
34 | Brc1ccc(-c2nnc(Cc3ccccc3)o2)cc1 | -8.24%
35 | Nc1ccn(CC(=O)N[C@H](CO)Cc2c[nH]c3ccccc23)c(=O)n1 | 34.2%
36 | O=C(NC(=S)NCc1cccnc1)c1ccccc1[N+](=O)[O-] | 24.5%
37 | O=C(Cc1ccc(Cl)cc1)c1c[nH]c(C(=O)NCc2cccnc2)c1 | -0.756%
38 | CN(C)S(=O)(=O)c1ccc(-c2csnn2)s1 | -5.75%
39 | CCCc1nc(SCC(=O)N2CCCC2)c2ccccc2n1 | -46.6%
40 | Cc1ccc(N(CC(=O)NCc2ccc(F)cc2)C(=O)CCC(=O)Nc2ccccn2)cc1C | 5.63%
41 | COc1cccc(-c2cc(C(=O)Nc3ccc(OC)c(OC)c3)no2)c1 | -8.98%
42 | COc1ccc(N2C(=O)CC(N3CCC(O)(c4cccc(C(F)(F)F)c4)CC3)C2=O)cc1 (centres unmarked) | -11.4%
43 | COc1ccc(/C=c2\s/c(=C(/C#N)C(=O)NCc3ccco3)n(-c3ccccc3)c2=O)cc1 | 3.83%
44 | CC1Cc2ccccc2N1CC(=O)c1c(N)n(Cc2ccccc2)c(=O)n(C)c1=O (centres unmarked) | -11.1%
